Experimental data taken from patent publication US12116397B2, “IL-IR-I binding polypeptide” (Swedish Orphan Biovitrum AB (publ), priority 2017, dated 2024).

Legend:
hIL-1R-I = biological target: T1, hIL-1R-I (Homo sapiens, UniProt P14778); experiment: Biacore affinity/kinetic analysis of His6-tagged Z variants, human IL-1R-I; assay type: binding
T1 construct: purchased R&D Systems 269-1R/CF
T1 sequence (P14778 18-569): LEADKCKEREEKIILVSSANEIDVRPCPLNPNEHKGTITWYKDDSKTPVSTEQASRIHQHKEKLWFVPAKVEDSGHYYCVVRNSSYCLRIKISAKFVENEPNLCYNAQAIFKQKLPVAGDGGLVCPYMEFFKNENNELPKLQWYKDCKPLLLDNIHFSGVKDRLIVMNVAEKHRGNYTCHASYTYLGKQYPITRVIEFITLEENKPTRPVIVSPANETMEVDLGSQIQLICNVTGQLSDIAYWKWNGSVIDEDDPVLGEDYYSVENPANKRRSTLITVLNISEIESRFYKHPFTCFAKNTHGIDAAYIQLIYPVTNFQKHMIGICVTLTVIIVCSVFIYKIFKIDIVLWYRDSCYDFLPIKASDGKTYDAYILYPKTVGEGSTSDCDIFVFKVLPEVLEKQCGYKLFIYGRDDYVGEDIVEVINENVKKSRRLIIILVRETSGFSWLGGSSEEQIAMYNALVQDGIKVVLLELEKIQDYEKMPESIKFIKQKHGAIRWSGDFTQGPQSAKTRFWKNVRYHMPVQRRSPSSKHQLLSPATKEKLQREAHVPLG

TF-1 cells = experiment: In vitro IL-1β neutralization assay (TF-1 cell assay); assay type: cell-based
Procedure: The TF-1 cell line proliferates in response to many different cytokines including IL-1β. This cell line was used to assess the ability of primary IL-1R1 binders to inhibit IL-1β actions. TF-1 cells were maintained in RPM11640 with L-glutamine (Lonza) supplemented with 10% FCS (Gibco), Penicillin-Streptomycin (Lonza) and 2 ng/ml rhGM-CSF (R&D Systems). Prior to use, cells were washed twice in RPM11640 without rhGM-CSF. Cells were then counted and dispensed into 96 well flat bottomed plates at a density of 3×10^4 cells per well. In separate plates, serial dilutions of the inhibitory binders; His6-tagged IL-1R-I binding Z variants, with a concentration range of 400-0.1 nM, or the IL-1R-I binding protein Kineret (anakinra, Sobi), with a concentration range of 0.3-0.0003 nM, were incubated in the presence of 0.6 nM IL-1β (PeproTech). The pre-mixed complexes of the Z variant polypeptides and IL-13 were transferred to wells containing TF-1 cells. The cells were stimulated for 72 h at 37° C. in a humidified 5% CO2 atmosphere. During the last four hours of incubation, 19 μl of 2× diluted CCK-8 (Fluka, Sigma Aldrich), was added per well to determine the proliferative responses. The absorbance was measured at 450 nm using a microplate reader (Victor3, Perkin Elmer). The data on cell growth was assessed by non-linear regression to a four-parameter dose-response curve, and the half maximal inhibitory concentration (IC50) was determined using GraphPadPrism program.
(§1) His6-tagged IL-1R-I specific Z variants were tested for their inhibitory capacity in the TF-1 cell assay. The assay was run as described in Example 2. The data on cell growth was assessed by non-linear regression to a four-parameter dose-response curve, and IC50 values were determined using GraphPadPrism program. His6-tagged Z12967 was included for comparison.
as §1, with “Z12967, Z16065, Z16163 and Z18557 were” for “Z12967 was”

[1] = Circular dichroism (CD) spectroscopy analysis, melting temperature and refolding; assay type: physicochemical; details: for Melting temperatures (Tm): His6-tagged Z variants, CD variable temperature measurement; for Tm (° C.): His6-tagged Z variants 0.5 mg/ml in PBS, 221 nm, 20 to 90° C. (Example 2)
[2] = His6-Z polypeptides, 100, 10 and 1 nM (Example 5)
[3] = His6-Z polypeptides, 100, 10 and 1 nM (Example 5), read-out: KD
[4] = His6-Z polypeptides, IL-1β inhibition in TF-1 cell assay, Table 12 (first matured library)
[5] = His6-Z polypeptides, Biacore 2000, 25° C., 40 nM and 10 nM (Example 2), read-out: Human IL-1R-I KD
[6] = His6-Z polypeptides, 0.6 nM IL-1β, 72 h (Example 2)
[7] = His6-Z polypeptides binding to human IL-1R-I, Biacore, Table 19
[8] = His6-Z polypeptides binding to human IL-1R-I, Biacore, Table 19, read-out: KD
[9] = His6-Z polypeptides, IL-1β inhibition in TF-1 cell assay, Table 20 (Example 9)

koff (hIL-1R-I; [2]) [s⁻¹]	kon (hIL-1R-I; [2]) [M⁻¹ s⁻¹]	Kd (hIL-1R-I; [3]) [nM]	IC50 (TF-1 cells; [4]) [nM]	Substance	Melting temperatures (Tm) ([1]; Table 13) [°C]	also measured
0.0013	6.9e+06	0.19	1.7	Z16065: IL-1R-I binding Z variant (VDAKYAKEVEEAQMEIFALPNLTRRQYTAFIRKLLDDPSQSSELLSEAKKLNDSQAPK; Engineered IL-1R-I binding polypeptide)	59	Kd (hIL-1R-I; His6-tagged, 48, 12, 3 and 0.75 nM, comparison variants (Example 9), read-out: KD to human IL-1R-I): 0.51 nM; IC50 (TF-1 cells; His6-tagged, TF-1 cell assay, comparison variants (Example 9)): 3.3 nM
0.0012	2.4e+06	0.51	2.5	Z15927: IL-1R-I binding Z variant (VDAKYAKEIEEAQMEIFYLPNLTRKQYTAFIRKLLDDPSQSSELLSEAKKLNDSQAPK; Engineered IL-1R-I binding polypeptide)	56	–
0.0053	2.4e+06	2.2	5.4	Z17280: IL-1R-I binding Z variant (VDAKYAKEVEQAYWEIYALPNLTRKQYTAFIRKLLDDPSQSSELLSEAKKLNDSQAPK; Engineered IL-1R-I binding polypeptide)	62	–
0.0011	2.5e+06	0.44	2.5	Z16043: IL-1R-I binding Z variant (VDAKYAKETEEAQMEIFRLPNLTRRQYTAFIRKLLDDPSQSSELLSEAKKLNDSQAPK; Engineered IL-1R-I binding polypeptide)	54	–
0.002	4.3e+06	0.46	2.9	Z15961: IL-1R-I binding Z variant (VDAKYAKEVETAQMEIFALPNLTRKQYTAFIRKLFDDPSQSSELLSEAKKLNDSQAPK; Engineered IL-1R-I binding polypeptide)	59	–
0.0031	2.7e+06	1.2	8.2	Z16245: IL-1R-I binding Z variant (VDAKYAKEVETAYFEIFALPNLTRKQYTAFIRKLLDDPSQSSELLSEAKKLNDSQAPK; Engineered IL-1R-I binding polypeptide)	63	–

The next lines start with the substance.

Substance	koff (hIL-1R-I; [2]) [s⁻¹]	kon (hIL-1R-I; [2]) [M⁻¹ s⁻¹]	Kd (hIL-1R-I; [3]) [nM]	IC50 (TF-1 cells; [4]) [nM]	Melting temperatures (Tm) ([1]; Table 13) [°C]	also measured
Z16117: IL-1R-I binding Z variant (VDAKYAKEIEKAQFEIFALPNLTRKQYTAFIRKLFDDPSQSSELLSEAKKLNDSQAPK; Engineered IL-1R-I binding polypeptide)	0.0027	4e+06	0.69	8.5	63	–
Z12922: IL-1R-I binding Z variant (VDAKYAKEDEQAQLEIFNLPNLTRRQYTAFIRKLLDDPSQSSELLSEAKKLNDSQAPK; Engineered IL-1R-I binding polypeptide)	–	–	–	–	–	Kd (hIL-1R-I; [5]): 9.8 nM; IC50 (TF-1 cells; [6]): 66 nM; Tm (° C.) [1]: 47 °C
Z15975: IL-1R-I binding Z variant (VDAKYAKEVETAQMEIFVLPNLTRKQYTAFIRKLLDDPSQSSELLSEAKKLNDSQAPK; Engineered IL-1R-I binding polypeptide)	–	–	–	–	–	koff (hIL-1R-I; [7]): 0.029 s⁻¹; kon (hIL-1R-I; [7]): 4.1e+07 M⁻¹ s⁻¹; Kd (hIL-1R-I; [8]): 0.71 nM; IC50 (TF-1 cells; [9]): 3.3 nM; Melting temperatures (Tm) ([1]; Table 21): 59 °C
Z18874: IL-1R-I binding Z variant (VDAKYAKELEAIQMEIFHLPNLTRRQYTAFIRKLLDDPSQSSELLSEAKKLNDSQAPK; Engineered IL-1R-I binding polypeptide)	–	–	–	–	–	koff (hIL-1R-I; [7]): 0.0052 s⁻¹; kon (hIL-1R-I; [7]): 4.9e+07 M⁻¹ s⁻¹; Kd (hIL-1R-I; [8]): 0.11 nM; IC50 (TF-1 cells; [9]): 0.3 nM; Melting temperatures (Tm) ([1]; Table 21): 61 °C
Z16681: IL-1R-I binding Z variant (VDAKYAKEVEYAYYEIFKLPNLTRKQYTAFIRKLLDDPSQSSELLSEAKKLNDSQAPK; Engineered IL-1R-I binding polypeptide)	0.005	3.6e+06	1.4	20.1	68	–
Z16116: IL-1R-I binding Z variant (VDAKYAKEVEAAQMEIFGLPNLTRKQYTAFIRKLLDDPSQSSELLSEAKKLNDSQAPK; Engineered IL-1R-I binding polypeptide)	0.0023	2.6e+06	0.88	4.1	59	–
Z15876: IL-1R-I binding Z variant (VDAKYAKEIEAAQMEIFGLPNLTRKQYTAFIRKLFDDPSQSSELLSEAKKLNDSQAPK; Engineered IL-1R-I binding polypeptide)	0.0013	2.1e+06	0.62	2.4	55	koff (hIL-1R-I; [7]): 0.0041 s⁻¹; kon (hIL-1R-I; [7]): 5.2e+06 M⁻¹ s⁻¹; Kd (hIL-1R-I; [8]): 0.8 nM; Melting temperatures (Tm) ([1]; Table 21): 55 °C
Z16023: IL-1R-I binding Z variant (VDAKYAKEVEEAQMEIFALPNLTRKQYTAFIRKLLDDPSQSSELLSEAKKLNDSQAPK; Engineered IL-1R-I binding polypeptide)	0.0015	5.3e+06	0.29	3.8	60	–
Z18831: IL-1R-I binding Z variant (VDAKYAKEIEEVQMEIFYLPNLTRRQYTAFIRKLLDDPSQSSELLSEAKKLNDSQAPK; Engineered IL-1R-I binding polypeptide)	–	–	–	–	–	koff (hIL-1R-I; [7]): 0.0053 s⁻¹; kon (hIL-1R-I; [7]): 4e+07 M⁻¹ s⁻¹; Kd (hIL-1R-I; [8]): 0.13 nM; IC50 (TF-1 cells; [9]): 0.4 nM; Melting temperatures (Tm) ([1]; Table 21): 58 °C
Z12884: IL-1R-I binding Z variant (VDAKYAKEASLAQHEIFALPNLTRKQYTAFIRKLFDDPSQSSELLSEAKKLNDSQAPK; Engineered IL-1R-I binding polypeptide)	–	–	–	–	–	Kd (hIL-1R-I; [5]): 18 nM; IC50 (TF-1 cells; [6]): 27 nM; Tm (° C.) [1]: 49 °C
Z12895: IL-1R-I binding Z variant (VDAKYAKEALSAQQEIFALPNLTRRQYTAFIRKLLDDPSQSSELLSEAKKLNDSQAPK; Engineered IL-1R-I binding polypeptide)	–	–	–	–	–	Kd (hIL-1R-I; [5]): 5.5 nM; IC50 (TF-1 cells; [6]): 7.1 nM; Tm (° C.) [1]: 55 °C
Z12974: IL-1R-I binding Z variant (VDAKYAKEADHAQQEIFALPNLTRRQYTAFIIKLLDDPSQSSELLSEAKKLNDSQAPK; Engineered IL-1R-I binding polypeptide)	–	–	–	–	–	Kd (hIL-1R-I; [5]): 15 nM; IC50 (TF-1 cells; [6]): 60 nM; Tm (° C.) [1]: 49 °C
Z16127: IL-1R-I binding Z variant (VDAKYAKEIEIAQMEIFGLPNLTRKQYTAFIRKLLDDPSQSSELLSEAKKLNDSQAPK; Engineered IL-1R-I binding polypeptide)	0.0019	6.7e+06	0.29	4.1	59	–
Z12975: IL-1R-I binding Z variant (VDAKYAKEAHNAQQEIYRLPNLTRRQYTAFIIKLLDDPSQSSELLSEAKKLNDSQAPK; Engineered IL-1R-I binding polypeptide)	–	–	–	–	–	Kd (hIL-1R-I; [5]): 89 nM; IC50 (TF-1 cells; [6]): 35 nM; Tm (° C.) [1]: 51 °C

Like-named read-outs stand apart in the source and are kept apart here.
